This list was built around the results that the source calls inconclusive (neither active nor inactive); the mix of calls is not that of the screen. No potency is given beside an inconclusive call; the fits are too rough. Active and inactive are the calls of the source. Calls follow the shape of the dose curve; as a rule, active = well fitted curve in the direction sought with a large enough effect; inconclusive = small, poorly fitted or top-dose-only effect, or another doubt; inactive = no such curve, though single readings can be large; an effect the other way counts as inactive or inconclusive.
What follows are compounds tested against Rap guanine nucleotide exchange factor 3 (Homo sapiens) (UniProt O95398) (assay: Confirmatory qHTS for agonist of cAMP-regulated guanine nucleotide exchange factor 3 (EPAC1) (AID 1645881; also: nearly all actives have a fitted effect of over 75% in size;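 as to activation: EPAC1 catalysed release of BODIPY-GDP from Rap1B seen as fluorescence loss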)). Settings: EPAC1 Rap1B BODIPY-GDP exchange fluorescence; activation: at 154 µM (top of the series), 100% = cAMP control response.
Chain of UniProt O95398 (O95398 whole entry, looked up): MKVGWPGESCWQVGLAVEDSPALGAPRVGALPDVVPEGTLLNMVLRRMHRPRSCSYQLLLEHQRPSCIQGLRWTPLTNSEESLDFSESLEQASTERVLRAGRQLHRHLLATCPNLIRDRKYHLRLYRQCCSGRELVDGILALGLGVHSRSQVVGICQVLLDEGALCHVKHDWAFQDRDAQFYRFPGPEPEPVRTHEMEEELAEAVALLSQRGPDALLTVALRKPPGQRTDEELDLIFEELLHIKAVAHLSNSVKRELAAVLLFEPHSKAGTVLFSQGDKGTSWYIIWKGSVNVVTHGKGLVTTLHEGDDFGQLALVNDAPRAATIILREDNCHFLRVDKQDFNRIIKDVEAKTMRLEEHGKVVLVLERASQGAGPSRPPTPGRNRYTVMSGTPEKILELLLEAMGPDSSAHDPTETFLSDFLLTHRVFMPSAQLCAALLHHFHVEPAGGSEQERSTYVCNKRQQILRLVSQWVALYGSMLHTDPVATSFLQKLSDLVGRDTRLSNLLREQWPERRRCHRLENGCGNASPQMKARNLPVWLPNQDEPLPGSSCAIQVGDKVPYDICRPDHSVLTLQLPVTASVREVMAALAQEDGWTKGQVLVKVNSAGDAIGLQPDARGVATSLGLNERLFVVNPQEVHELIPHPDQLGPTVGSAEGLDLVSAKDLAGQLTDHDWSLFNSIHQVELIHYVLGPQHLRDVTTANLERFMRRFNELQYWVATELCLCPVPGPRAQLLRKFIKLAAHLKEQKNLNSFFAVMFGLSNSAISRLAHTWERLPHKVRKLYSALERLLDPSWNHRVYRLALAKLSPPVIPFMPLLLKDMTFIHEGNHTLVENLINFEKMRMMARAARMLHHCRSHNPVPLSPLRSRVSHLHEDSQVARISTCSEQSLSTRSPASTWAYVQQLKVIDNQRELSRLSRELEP
Potency is read from the fitted curve at half-maximal effect; tags tell the direction and shape of the fitted curve.

Compound	activation	Potency
COc1ccccc1CNc1nc(-c2cccc(C#N)c2)nc2ccccc12	inactive: 9.74%	–
CN(CC(=O)Nc1ccc(F)cc1)C(=O)COc1ccc(C(=O)c2ccccc2)cc1	inactive: 13.2%	–
O=C(N/N=C/c1ccc(OC(=O)c2ccccc2Cl)cc1)c1cc(O)cc(O)c1	–	inconclusive [activator, partial curve, poor fit]
Cc1ccc2c(c1)c(/C=C/c1cc[n+](C)cc1)c(C)n2C	–	active: 100 µM
CCN(CC)c1ccc(/C=C/C(=O)c2ccc(Br)cc2)cc1	–	inconclusive [activator, partial curve, poor fit]
Cc1ccc(-c2csc(NC(=O)/C=C/c3ccco3)c2C(=O)O)cc1	inactive: -1.52%	–

What follows are compounds tested against Rap guanine nucleotide exchange factor 4 (Homo sapiens) (UniProt Q8WZA2) (assay: Confirmatory qHTS for agonist of cAMP-regulated guanine nucleotide exchange factor 4 (EPAC2) (AID 1645884;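 also: nucleotide exchange releases bodipy-GDP from Rap1 and this lowers its fluorescence; nearly all actives have a fitted effect of over 65% in size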; as to activation: % is scaled to controls: 0 for no effect and ±100 for the full control effect)). Settings: EPAC2 GEF activity, Rap1B-BODIPY-GDP fluorescence; activation: at 154 µM (top of the series), percent relative to cAMP agonist control.
Chain of UniProt Q8WZA2 (Q8WZA2 whole entry, looked up): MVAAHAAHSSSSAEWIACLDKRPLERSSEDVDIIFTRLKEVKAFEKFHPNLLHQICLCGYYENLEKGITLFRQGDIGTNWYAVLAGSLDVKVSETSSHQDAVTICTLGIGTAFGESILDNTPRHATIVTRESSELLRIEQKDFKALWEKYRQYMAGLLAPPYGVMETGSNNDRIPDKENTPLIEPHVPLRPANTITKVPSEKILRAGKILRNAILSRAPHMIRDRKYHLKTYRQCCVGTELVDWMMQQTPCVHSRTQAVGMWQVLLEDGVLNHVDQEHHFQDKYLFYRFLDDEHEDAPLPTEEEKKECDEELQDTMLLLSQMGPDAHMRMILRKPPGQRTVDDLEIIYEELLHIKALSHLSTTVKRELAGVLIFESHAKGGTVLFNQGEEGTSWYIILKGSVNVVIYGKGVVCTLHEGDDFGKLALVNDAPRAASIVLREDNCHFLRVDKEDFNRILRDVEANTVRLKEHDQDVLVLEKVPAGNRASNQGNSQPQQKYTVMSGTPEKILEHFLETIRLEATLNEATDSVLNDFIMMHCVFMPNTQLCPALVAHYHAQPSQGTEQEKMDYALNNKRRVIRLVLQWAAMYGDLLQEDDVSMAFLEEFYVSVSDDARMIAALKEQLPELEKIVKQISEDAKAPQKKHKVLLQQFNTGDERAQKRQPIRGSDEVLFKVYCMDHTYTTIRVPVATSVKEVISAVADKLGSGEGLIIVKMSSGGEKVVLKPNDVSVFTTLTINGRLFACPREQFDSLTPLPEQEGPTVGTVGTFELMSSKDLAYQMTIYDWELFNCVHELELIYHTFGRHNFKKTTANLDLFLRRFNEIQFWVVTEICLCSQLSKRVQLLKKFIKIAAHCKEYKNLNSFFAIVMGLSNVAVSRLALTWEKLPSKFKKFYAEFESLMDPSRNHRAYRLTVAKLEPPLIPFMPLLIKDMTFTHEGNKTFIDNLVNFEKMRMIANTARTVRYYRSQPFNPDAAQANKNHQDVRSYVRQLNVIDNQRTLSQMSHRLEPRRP

Compound	Potency	activation
O=C(O)c1ccccc1-c1ccc(/C=C/c2cc(C(F)(F)F)[nH]c(=O)n2)o1	inconclusive [activator, single point]	–
CN1C(=O)c2cccc3c(N)ccc(c23)C1=O	inconclusive [activator, partial curve, poor fit]	–
O=C(NC1CCCC1)c1cccc2c1C(=O)c1ccc(N3CCCCC3)cc1S2(=O)=O	inconclusive [activator, single point]	–
Cc1cc(/C=C2\SC(=S)N(Cc3ccco3)C2=O)c(C)n1-c1cccnc1	inconclusive [activator, single point]	–
Cc1cc2nc3c(=O)n(C4CCCCC4)c(=O)[nH]c3nc2cc1N	active: 56.2 µM	–
CCCCCCn1c(=O)[nH]c2nc3cc(N)c(C)cc3nc2c1=O	inconclusive [activator, single point]	–
CC(=O)Nc1ccc(N2C(=O)c3cccc4c(O)ccc(c34)C2=O)cc1	active: 112 µM	–
Cc1c(CCC(=O)O)c(=O)oc2c(C)c3occ(-c4ccc(Br)cc4)c3cc12	inconclusive [activator, partial curve]	–
Cc1ccc(N=Cc2c(O)n(-c3nccs3)c(=O)c3ccccc23)c(C)c1	inconclusive [activator, single point]	–
CN1/C(=C\C=C2/SC(=S)NC2=O)C(C)(C)c2ccccc21	active: 79.4 µM	–
c1csc(CNc2ccnc(-c3ccc4c(c3)OCO4)n2)c1	inconclusive [activator, partial curve]	–
O/C=c1\ccc2cccc3nc(C(F)(F)F)nc1c23	active: 100 µM	–
COc1cccc(/C=N/NC(=O)c2[nH]nc3c2CCc2ccccc2-3)c1O	inconclusive [activator, single point]	–
COc1ccccc1CNc1nc(-c2cccc(C#N)c2)nc2ccccc12	inconclusive [activator, partial curve, poor fit]	–
O=C(N/N=C/c1ccc(OC(=O)c2ccccc2Cl)cc1)c1cc(O)cc(O)c1	inconclusive [activator, partial curve, poor fit]	–
Cc1ccc2c(c1)c(/C=C/c1cc[n+](C)cc1)c(C)n2C	active: 100 µM	–
CCN(CC)c1ccc(/C=C/C(=O)c2ccc(Br)cc2)cc1	inconclusive [activator, partial curve, poor fit]	–
Cc1ccc(-c2csc(NC(=O)/C=C/c3ccco3)c2C(=O)O)cc1	–	inactive: 5.44% [at 17.1 µM, percent relative to cAMP agonist control]

The compounds below were run against Rap guanine nucleotide exchange factor 4 (Homo sapiens) (UniProt Q8WZA2) (assay: Confirmatory qHTS for antagonist of cAMP-regulated guanine nucleotide exchange factor 4 (EPAC2) (AID 1645885; also: nearly all actives have a fitted effect of over 25% in size; as to activity change, negative = inhibition: % is scaled to controls: 0 for no effect and ±100 for the full control effect)). Settings: EPAC2 Rap1B-BODIPY-GDP exchange fluorescence, biochemical; activity change, negative = inhibition: at 12.7 µM (top of the series) unless noted; series mostly up to 114 µM.

Compound	Potency	activity change, negative = inhibition
CCCOP(=O)(OCCC)C(Nc1cccc(C(F)(F)F)c1)c1ccc(C)cc1 (stereo unspecified)	inconclusive [inhibitor, full curve]	–
O=C1c2ccccc2-c2onc3c(Br)cc(NC4CCCCC4)c1c23	inconclusive [inhibitor, partial curve]	–
Cc1cc(OC(C)C(=O)NCc2ccccn2)c2c(C)c(Cc3ccccc3)c(=O)oc2c1 (stereo unspecified)	–	inactive: -9.13% [at 114 µM]
CCCc1nc2ccc(C(=O)OC)cn2c1Cc1ccccc1	active: 33.8 µM	–
Cc1ccc(F)c(NC(=O)/C(C#N)=C(\O)c2ccc(C(C)(C)C)cc2)c1	–	inactive: -21.7%
CCN(CC)c1ccc(/C=C(\C#N)C(=O)c2ccc(Br)cc2)cc1	–	inactive: 158% [at 114 µM]
CCOc1cnc(-c2c(-c3ccccc3Cl)noc2C)o1	inconclusive [inhibitor, partial curve]	–
Cc1nc(C)c(-c2csc(Nc3ccc(C(=O)O)c(O)c3)n2)s1	–	inactive: -20.9% [at 114 µM]
C=CCN(C(=O)Cn1ncc2c1-c1cc(C)ccc1OC2)c1ccccc1	inconclusive [inhibitor, partial curve]	–
COC1/C=C/OC2(C)Oc3c(C)c(O)c4c(O)c(c(/C=N/N5CCN(C)CC5)c(O)c4c3C2=O)NC(=O)/C(C)=C/C=C/C(C)C(O)C(C)C(O)C(C)C(OC(C)=O)C1C (stereo unspecified)	inconclusive [inhibitor, partial curve]	–
O=S(=O)(O)c1cccc(N=Nc2c(O)ccc3ccccc23)c1	active: 23.9 µM	–
CCOc1ccc(NC(=NCc2ccc3c(c2)OCO3)SC2CC(=O)N(c3ccc(C(=O)O)cc3)C2=O)cc1 (stereo unspecified)	inconclusive [inhibitor, partial curve]	–
CCOc1ccc(S(=O)(=O)Nc2cc(NS(=O)(=O)c3ccc(OCC)cc3)cc(C(=O)O)c2)cc1	–	inactive: 109% [at 114 µM]
Cc1ccc(C2=NOC(=O)/C2=C\c2ccc(C)o2)cc1	–	inactive: -12.7% [at 114 µM]
CC1(C(=O)NS(=O)(=O)c2ccc(Cl)s2)CCN1C(=O)C1(c2ccc(Cl)cc2)CCC1 (stereo unspecified)	active: 8.49 µM	–
COc1ccc2oc(C)c(C(=O)c3ccccc3)c2c1	–	inactive: -1.23%
COc1cc(-c2noc(C)c2-c2ccc3[nH]ccc3c2)cc(OC)c1OC	inconclusive [inhibitor, partial curve]	–
Cc1cc(C)c2nc(C(F)(F)F)nc(N3CC(C)OC(C)C3)c2c1 (stereo unspecified)	inconclusive [inhibitor, partial curve, poor fit]	–
CNc1ccc(/C=C(\CCC(=O)O)c2nc3ccccc3s2)cc1[N+](=O)[O-]	–	inactive: -14.5%
CCOc1cc(/C=N/O)cc(Br)c1OCc1ccc(Cl)cc1	inconclusive [inhibitor, full curve]	–
CCOC(=O)N1CCN(C(=O)c2cc(S(=O)(=O)N3CCc4ccccc43)ccc2OC)CC1	–	inactive: -21.4% [at 114 µM]
CN(CC(=O)Nc1ccc(F)cc1)C(=O)COc1ccc(C(=O)c2ccccc2)cc1	inconclusive [inhibitor, partial curve, poor fit]	–
